Our source for the binding signal values is paper PMC10668032.

Some of the results follow. At the low end of the ranking the order means little.

This assay has as its target SIX1-Q177R homeodomain (UniProt Q15475). Kind of assay: universal protein binding microarray. The following applies: Universal all-10-mer PBM (8x60K, AMADID 030236), 300 nM GST-tagged protein, Alexa Fluor 488 anti-GST; buffer, salt, pH and temperature not stated; high values mean tight binding; most listed sequences are background and not binding sites; double strand, one strand shown.
Take CTAGCGTC: the binding signal was -0.0683 E-score.
The value for GGGCAAGA was -0.0872 E-score.
The value for ACTTATGC was -0.0872 E-score; that for TTAGTAAA was 0.0011 E-score.
As for AAACCCGT, the binding signal came out at 0.0451 E-score.
The result for GCGTAAAC reads 0.0476 E-score; that for ATGCAGCC, -0.377 E-score.
The value for CCATCGAC was -0.255 E-score; that for CGCGATCA was 0.0476 E-score; that for AGTTCCGA was -0.118 E-score.
The value for CTCATGTC was -0.104 E-score; that for TGATAAAA was -0.219 E-score.
Take GCCGTGAA: the binding signal is -0.276 E-score.
The value for CAATAATA was 0.0135 E-score.
The value for ATCATTTA was -0.141 E-score; that for ATAAGTAA was -0.0646 E-score.
The result for AAAATATG reads -0.168 E-score; that for ACTGTAGC, -0.0891 E-score.
Take AAGAGGCA: the binding signal is -0.121 E-score.
The result for TGGAAAAA reads 0.1 E-score; that for AGAGGTTC, -0.0738 E-score.
The result for ATCTGAGA reads -0.217 E-score; that for ACAACCGA, -0.0845 E-score; that for AAGTAAAA, -0.284 E-score.
Take AGAAGAGC: the binding signal is -0.213 E-score.
On to CCGTCGAA, for which the binding signal was -0.227 E-score.
The result for ACTCCGAA reads 0.137 E-score.
The result for CCACGTCA reads 0.0507 E-score.
The value for CTATTACC was 0.0412 E-score; that for ATAACGTC was -0.011 E-score; that for AGGGCACG was 0.034 E-score.
On to GTGGGCGA, for which the binding signal was -0.258 E-score.
The result for CTGACGAA reads -0.25 E-score; that for CGACGAGA, -0.227 E-score; that for CATTTCTC, -0.318 E-score.
The result for AAGTTACG reads -0.0499 E-score; that for CCCTCGCG, 0.0949 E-score; that for AACGAGGG, 0.0692 E-score.
The value for CCCGTGAG was -0.0425 E-score; that for ATGCTGTA was -0.399 E-score; that for ACGAACAG was -0.00445 E-score.
In the case of AATGCCTC, the binding signal came to 0.0127 E-score.
The result for ATAACGCC reads 0.078 E-score.
In the case of CAACGGAA, the binding signal is -0.119 E-score.
The value for CGAGAACG was -0.137 E-score.
The value for CGTCGCGC was -0.173 E-score; that for AATTAAGA was -0.136 E-score.
The value for CCCTTAGG was 0.175 E-score; that for CGTAGCCA was -0.137 E-score.
In the case of CTTTTGCC, the binding signal was -0.0536 E-score.
The value for GTCCTATA was 0.0431 E-score; that for ACGGACCG was 0.00022 E-score; that for TACGTATA was -0.123 E-score.
Consider ACCACCGA, for which the binding signal is 0.0875 E-score.
Turning to ACTAAGTC, the binding signal was -0.147 E-score.
Turning to CGGAGCCC, the binding signal was -0.0206 E-score.
In the case of ATAACAAA, the binding signal is -0.115 E-score.
Turning to ATGACCAC, the binding signal is -0.17 E-score.
The value for GCTTTTGA was 0.00578 E-score; that for CCTGCCTC was -0.156 E-score; that for AGCCTGAC was -0.0305 E-score.
Take CCTATGCC: the binding signal is -0.162 E-score.
The result for AGCACTTG reads -0.0171 E-score.
The result for CCGTAGTC reads -0.182 E-score.
Consider CCCTTCTC, for which the binding signal worked out at 0.0869 E-score.
The result for AGTACGGA reads -0.14 E-score.
On to AAAACGCT, for which the binding signal was -0.203 E-score.
The value for AGGGGGTC was 0.271 E-score; that for ACTCGAGA was 0.116 E-score; that for CGCTCCTA was -0.0887 E-score.
The result for CTCGCAAG reads -0.0141 E-score; that for CCTACGTC, -0.147 E-score.
The value for ACCCTGGA was 0.168 E-score; that for CCACGATC was -0.143 E-score.
On to ACGCGTGG, for which the binding signal was -0.000765 E-score.
The result for GGATTTTA reads -0.0379 E-score; that for ACTGGGTA, 0.0624 E-score.
The result for AACCAGGT reads 0.0195 E-score; that for CCTCCTGA, 0.0991 E-score; that for ATCTCTGG, -0.0843 E-score.
The result for ATGGAGGG reads 0.0862 E-score; that for TAAACTGA, -0.00412 E-score.
Take CACCAACA: the binding signal was 0.377 E-score.
The result for AGGGGTAG reads 0.269 E-score.
The result for AGACACCT reads 0.453 E-score; that for ATGCTGTG, -0.0586 E-score; that for GGTATTAC, 0.122 E-score.
The result for AAGGTTGG reads 0.0234 E-score.
Consider AGGGGAGC, for which the binding signal was -0.0844 E-score.
Turning to TCAGAAAA, the binding signal was -0.158 E-score.
The result for ACGTGTTG reads 0.346 E-score; that for CCCAGTAG, -0.0238 E-score.
On to AGTACAAG, for which the binding signal turned out to be 0.205 E-score.
For the sequence AGGAGGCC, the binding signal was -0.26 E-score.
The value for TAAAAACA was -0.0938 E-score.
As to ATGGTCAG, the binding signal is -0.0442 E-score.
The value for GAATCTAA was -0.178 E-score; that for CCCGCCAC was 0.195 E-score; that for TAACTTGA was 0.0784 E-score.
With TATACGGA, the binding signal is -0.0563 E-score.
Take CTCACAAA: the binding signal was -0.259 E-score.
ATATCAGA: the binding signal stood at 0.0134 E-score.
The result for CGATGACC reads -0.0473 E-score; that for CATCTCTC, -0.0406 E-score; that for CGCATTAA, -0.0417 E-score.
The result for AGCCCCCA reads -0.085 E-score; that for GTCCCACA, 0.107 E-score; that for ACCGCCGA, 0.125 E-score.
The result for CGCACCAG reads 0.17 E-score.
In the case of AACTTCTA, the binding signal is -0.257 E-score.
The value for ATTGGCGG was -0.12 E-score; that for CATTGTGG was 0.029 E-score.
The result for GGGTGGTA reads 0.194 E-score; that for CTAGCTAA, -0.255 E-score; that for AGTGAAAG, -0.0682 E-score.
The result for GGATTCTA reads 0.0874 E-score.
In the case of ATAAGTCG, the binding signal was -0.16 E-score.
The result for ACAACGAG reads -0.0313 E-score; that for GGTACCAC, -0.115 E-score.
For TAAGGCCA, the binding signal was -0.116 E-score.
On to AGGTCGGA, for which the binding signal was found to be 0.0808 E-score.
The value for TCAGTGGA was -0.112 E-score.
Take CCTGTAAA: the binding signal was -0.00159 E-score.
The result for GCCCACGA reads -0.25 E-score.
The result for AGCTAACG reads -0.0718 E-score; that for GGTTTTCA, -0.00496 E-score.
As for AAGTCATC, the binding signal is -0.289 E-score.
The result for GCCCACTA reads -0.194 E-score; that for GCAAGCCC, -0.19 E-score.
The value for AGATACAC was 0.424 E-score; that for CCTAGTGA was 0.0144 E-score; that for ACCCTGAA was 0.21 E-score.
The result for AATCCCCG reads 0.0549 E-score.
In the case of GGAGAACA, the binding signal was 0.0126 E-score.
The result for CGCAGTGC reads 0.0332 E-score; that for AGGTAAAA, -0.167 E-score.
Consider AGCCTGCG, for which the binding signal was -0.182 E-score.
The value for CCCGGATA was 0.164 E-score; that for ACCAATCC was -0.0178 E-score.
In the case of ACGCTGGG, the binding signal is 0.154 E-score.
For the sequence ACCAGAGT, the binding signal came to 0.16 E-score.
The value for CGATGCGA was -0.0651 E-score; that for AGAAGGAC was -0.121 E-score; that for AATGACCC was 0.181 E-score.
For CCTTTTGC, the binding signal was -0.0587 E-score.
With GACAAGGA, the binding signal was -0.0636 E-score.
The value for CGCTTTCC was -0.269 E-score; that for GCATTGGC was -0.111 E-score.
The result for ACTATCGC reads -0.151 E-score.
The result for AGCATTGC reads -0.206 E-score; that for CTGTGAGC, 0.0245 E-score; that for CTCAGCTA, -0.0971 E-score.
With CAAAATAC, the binding signal is 0.162 E-score.
The value for AGACCGTC was -0.0918 E-score; that for GTCACTTA was -0.0512 E-score.
The value for AGTCCTAA was -0.279 E-score; that for ACTGATAT was 0.00484 E-score.
As to CGCAACAA, the binding signal is -0.127 E-score.
The result for ATCCGAAG reads -0.0355 E-score; that for GCGATTTA, -0.218 E-score.
The value for TAGACTAA was -0.253 E-score; that for ACTCATGC was -0.04 E-score; that for CTGGCCCA was -0.322 E-score.
Take TATTCCGA: the binding signal is -0.206 E-score.
The result for CCATAGCA reads 0.139 E-score.
The value for AATACGTC was -0.152 E-score.
The result for CGACACTA reads 0.41 E-score.
As for AATCTCAC, the binding signal was -0.105 E-score.
The value for ATCGCATC was 0.0318 E-score; that for ATAATGCA was -0.0455 E-score.
Turning to GGTTCGCA, the binding signal is -0.0216 E-score.
GACTCACC: the binding signal was -0.11 E-score.
